{"source": "the supplement of paper PMC10126150", "note": "Sequences with one replicate were seen in a single cluster, so their values are uncertain.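 Further: ATP exposure 15 min at 22 °C before imaging.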"}
{"tested_on": "ATP", "test": "switch fluorescence ratio, 500 uM ATP over buffer (Cy3 cluster intensity, sum of 5 cycles each) (fold (ratio)); higher = stronger signal-on switching upon ATP binding; sequences stand for … in TCGTCGGCAGCGTCAGATGTGTATAAGAGACAGTTTTTTTTTTTTTTTTTTTTTTTTT…TC", "conditions": "aptamer strand: ATP DNA aptamer (quencher-CACCTGGGGGAGTATTGCGGAGGAAGG + anchor), 100 nM annealed; ATP concentration: 500 uM; one replicate", "outline": "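Cy3-labelled switching-strand clusters on a modified Illumina MiSeq flow-cell were annealed to 100 nM quencher-labelled ATP aptamer, imaged in selection buffer, then imaged after 15 min with 500 uM ATP at 22 °C. Five buffer/ATP cycles ran, with NaOH stripping and re-annealing between them. The fluorescence ratio is summed target-cycle over summed buffer-cycle Cy3 intensity per cluster, averaged per switch-domain sequence. Clusters outside 100-1000 RFU were excluded.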"}
{"sequence": "GCCGAGTGAG", "switch fluorescence ratio": 0.97}
{"sequence": "GCCGATGTGG", "switch fluorescence ratio": 1.03}
{"sequence": "GCCGCAGATC", "switch fluorescence ratio": 4.67}
{"sequence": "GCCGCGGTCC", "switch fluorescence ratio": 1.37}
{"sequence": "GCCGCGTCTT", "switch fluorescence ratio": 1.02}
{"sequence": "GCCGGAATAG", "switch fluorescence ratio": 2.91}
{"sequence": "GCCGGAATAT", "switch fluorescence ratio": 1.78}
{"sequence": "GCCGGCCAAG", "switch fluorescence ratio": 0.971}
{"sequence": "GCCGGGATCC", "switch fluorescence ratio": 1}
{"sequence": "GCCGGGCCA", "switch fluorescence ratio": 1}
{"sequence": "GCCGGTATGG", "switch fluorescence ratio": 0.963}
{"sequence": "GCCGTAAATG", "switch fluorescence ratio": 1.03}
{"sequence": "GCCGTAGACT", "switch fluorescence ratio": 1}
{"sequence": "GCCGTATAAC", "switch fluorescence ratio": 1.11}
{"sequence": "GCCGTCGCAT", "switch fluorescence ratio": 0.992}
{"sequence": "GCCGTCTGGT", "switch fluorescence ratio": 0.992}
{"sequence": "GCCGTCTTTA", "switch fluorescence ratio": 0.987}
{"sequence": "GCCGTGGGTC", "switch fluorescence ratio": 0.971}
{"sequence": "GCCTAAACGG", "switch fluorescence ratio": 1.04}
{"sequence": "GCCTAACGCA", "switch fluorescence ratio": 1.12}
{"sequence": "GCCTAAGCGT", "switch fluorescence ratio": 0.989}
{"sequence": "GCCTAGCTAT", "switch fluorescence ratio": 0.998}
{"sequence": "GCCTAGGCGC", "switch fluorescence ratio": 1.01}
{"sequence": "GCCTAGGGGC", "switch fluorescence ratio": 1}
{"sequence": "GCCTAGTGTC", "switch fluorescence ratio": 1.14}
{"sequence": "GCCTAGTTTA", "switch fluorescence ratio": 0.958}
{"sequence": "GCCTATAAAA", "switch fluorescence ratio": 0.972}
{"sequence": "GCCTATGACA", "switch fluorescence ratio": 1.03}
{"sequence": "GCCTATGTTT", "switch fluorescence ratio": 0.981}
{"sequence": "GCCTATTCTG", "switch fluorescence ratio": 0.918}
{"sequence": "GCCTCAGTGA", "switch fluorescence ratio": 1.38}
{"sequence": "GCCTCGATGA", "switch fluorescence ratio": 1.01}
{"sequence": "GCCTCTCGAC", "switch fluorescence ratio": 1.18}
{"sequence": "GCCTCTCTAC", "switch fluorescence ratio": 1.33}
{"sequence": "GCCTGACTTT", "switch fluorescence ratio": 1.18}
{"sequence": "GCCTGATGGG", "switch fluorescence ratio": 1.11}
{"sequence": "GCCTGGACGG", "switch fluorescence ratio": 0.975}
{"sequence": "GCCTTAGGGA", "switch fluorescence ratio": 1}
{"sequence": "GCCTTATGT", "switch fluorescence ratio": 0.986}
{"sequence": "GCCTTCTGGG", "switch fluorescence ratio": 0.996}
{"sequence": "GCCTTGTGAC", "switch fluorescence ratio": 1.08}
{"sequence": "GCCTTTACA", "switch fluorescence ratio": 0.963}
{"sequence": "GCCTTTCCAA", "switch fluorescence ratio": 1.08}
{"sequence": "GCCTTTGGTA", "switch fluorescence ratio": 1.03}
{"sequence": "GCCTTTTTAT", "switch fluorescence ratio": 0.99}
{"sequence": "GCCTTTTTG", "switch fluorescence ratio": 0.997}
{"sequence": "GCGAACGCGA", "switch fluorescence ratio": 3.53}
{"sequence": "GCGAAGAGCT", "switch fluorescence ratio": 1.04}
{"sequence": "GCGAAGAGTG", "switch fluorescence ratio": 1.02}
{"sequence": "GCGACCAAGG", "switch fluorescence ratio": 1.01}
{"sequence": "GCGACCATTT", "switch fluorescence ratio": 1.02}
{"sequence": "GCGACGATGT", "switch fluorescence ratio": 1.08}
{"sequence": "GCGACGGAAG", "switch fluorescence ratio": 1.06}
{"sequence": "GCGACGGACC", "switch fluorescence ratio": 1.56}
{"sequence": "GCGACTAAGA", "switch fluorescence ratio": 0.972}
{"sequence": "GCGACTGACT", "switch fluorescence ratio": 1.09}
{"sequence": "GCGACTTAGA", "switch fluorescence ratio": 0.995}
{"sequence": "GCGACTTTTC", "switch fluorescence ratio": 1.01}
{"sequence": "GCGAGAGCTT", "switch fluorescence ratio": 1}
{"sequence": "GCGAGATAAG", "switch fluorescence ratio": 0.99}
{"sequence": "GCGAGATCCC", "switch fluorescence ratio": 1.34}
{"sequence": "GCGAGCCTCA", "switch fluorescence ratio": 0.933}
{"sequence": "GCGAGGGT", "switch fluorescence ratio": 1}
{"sequence": "GCGAGGGTGC", "switch fluorescence ratio": 1.06}
{"sequence": "GCGAGTCGTG", "switch fluorescence ratio": 0.968}
{"sequence": "GCGAGTGCTC", "switch fluorescence ratio": 1.06}
{"sequence": "GCGAGTTACG", "switch fluorescence ratio": 0.993}
{"sequence": "GCGATACCAT", "switch fluorescence ratio": 1.12}
{"sequence": "GCGATACGGC", "switch fluorescence ratio": 1.9}
{"sequence": "GCGATAGACC", "switch fluorescence ratio": 1.13}
{"sequence": "GCGATAGGGA", "switch fluorescence ratio": 0.971}
{"sequence": "GCGATATCTC", "switch fluorescence ratio": 3.45}
{"sequence": "GCGATATGG", "switch fluorescence ratio": 1.03}
{"sequence": "GCGATCGATA", "switch fluorescence ratio": 1.08}
{"sequence": "GCGATGCTTT", "switch fluorescence ratio": 1.05}
{"sequence": "GCGATGGCTT", "switch fluorescence ratio": 0.986}
{"sequence": "GCGATGTAAG", "switch fluorescence ratio": 0.999}
{"sequence": "GCGATTGTA", "switch fluorescence ratio": 0.985}
{"sequence": "GCGCAAAGGT", "switch fluorescence ratio": 1.02}
{"sequence": "GCGCAATGTC", "switch fluorescence ratio": 2.43}
{"sequence": "GCGCATCAGA", "switch fluorescence ratio": 1.01}
{"sequence": "GCGCATCGAA", "switch fluorescence ratio": 0.977}
{"sequence": "GCGCCAGAGT", "switch fluorescence ratio": 1.02}
{"sequence": "GCGCCAGGAT", "switch fluorescence ratio": 0.985}
{"sequence": "GCGCCGATTA", "switch fluorescence ratio": 1.08}
{"sequence": "GCGCCGGTAA", "switch fluorescence ratio": 1.06}
{"sequence": "GCGCCTCCGA", "switch fluorescence ratio": 2.55}
{"sequence": "GCGCCTGTAG", "switch fluorescence ratio": 1.04}
{"sequence": "GCGCGAATTC", "switch fluorescence ratio": 1.2}
{"sequence": "GCGCGAGTAC", "switch fluorescence ratio": 1.89}
{"sequence": "GCGCGGAGCC", "switch fluorescence ratio": 1.02}
{"sequence": "GCGCGGGGCA", "switch fluorescence ratio": 1.06}
{"sequence": "GCGCGGGGCG", "switch fluorescence ratio": 1.01}
{"sequence": "GCGCGTAGTG", "switch fluorescence ratio": 1.01}
{"sequence": "GCGCGTGGGG", "switch fluorescence ratio": 0.994}
{"sequence": "GCGCGTGTCA", "switch fluorescence ratio": 1.07}
{"sequence": "GCGCTATCGC", "switch fluorescence ratio": 1.03}
{"sequence": "GCGCTGTGGA", "switch fluorescence ratio": 1.07}
{"sequence": "GCGCTGTTTT", "switch fluorescence ratio": 1.31}
{"sequence": "GCGCTTATGG", "switch fluorescence ratio": 1}
